“And” between values parts separate entries of the source, which are not always exact repeats. Equal entries are not always repeated. Hit rate of the full screen: of about 110,000 compounds, about 230 (0.21%) showed an effect of 50% or more. Some of the results follow.
Molecular target: DPAP1 (Plasmodium falciparum, UniProt Q8IIJ9)
Experiment: primary screen, percent inhibition; read by cleavage of a fluorogenic dipeptide substrate; higher = more effect of the substance
Parameters: species or system P. falciparum D10 trophozoite lysates; single well
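Note: 30 min substrate incubation versus DMSO and 10 µM JCP410 controls.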

DPAP1, sequence (Q8IIJ9 whole entry, looked up): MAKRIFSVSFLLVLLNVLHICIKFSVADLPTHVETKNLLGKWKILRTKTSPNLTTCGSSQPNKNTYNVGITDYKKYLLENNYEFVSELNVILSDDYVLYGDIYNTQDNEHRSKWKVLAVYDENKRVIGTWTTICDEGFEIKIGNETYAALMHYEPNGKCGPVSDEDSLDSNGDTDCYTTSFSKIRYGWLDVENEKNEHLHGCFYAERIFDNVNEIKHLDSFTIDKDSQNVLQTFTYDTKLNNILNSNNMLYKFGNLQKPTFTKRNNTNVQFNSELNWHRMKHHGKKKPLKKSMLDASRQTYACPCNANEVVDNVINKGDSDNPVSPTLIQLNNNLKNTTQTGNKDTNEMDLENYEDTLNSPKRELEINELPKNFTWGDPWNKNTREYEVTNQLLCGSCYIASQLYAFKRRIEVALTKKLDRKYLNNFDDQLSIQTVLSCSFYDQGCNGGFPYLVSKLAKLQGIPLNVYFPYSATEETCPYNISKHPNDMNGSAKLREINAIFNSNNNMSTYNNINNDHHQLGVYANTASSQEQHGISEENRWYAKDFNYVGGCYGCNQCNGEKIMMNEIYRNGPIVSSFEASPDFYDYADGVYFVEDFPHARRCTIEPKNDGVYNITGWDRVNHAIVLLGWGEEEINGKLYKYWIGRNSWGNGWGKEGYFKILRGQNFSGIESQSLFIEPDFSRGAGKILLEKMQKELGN

SMILES | % Inhibition @ 10 uM
N#CC1=C(N)Oc2c(oc(CO)cc2=O)C1c1c[nH]nc1-c1ccc(F)cc1 (centres unmarked) | 0.0719%
Oc1ccc(Nc2nc(Nc3ccc(O)cc3)nc(N3CCOCC3)n2)cc1 | -4.11%
CN1C(C(=O)N2CCc3ccccc3C2)=CC(c2ccc(F)cc2)=NS1(=O)=O | 2.32%
CC(=O)c1ccc(N2CCOCC2)c(F)c1 | -3.88%
CCOc1ccc(C(=O)Nc2ccc(C(C)C)cc2)cc1 | -9.68%
CCNC(=S)N(CCc1c(C)[nH]c2ccc(F)cc12)Cc1ccncc1 | 0.121%
COC(=O)c1c(-c2ccccc2Cl)csc1NC(=O)CCC(=O)O | -2.9%
Cc1cc(-c2ccccc2)nc2cc(C(=O)N3CCCCC3)nn12 | -2.53%
O=C(CSCC(=O)Nc1ccc2c3c(cccc13)CC2)NCCc1ccccc1 | -0.496%
Cc1ccc2c(c1)-c1c(cnn1CC(=O)NCCc1ccc(S(N)(=O)=O)cc1)CO2 | -1.53%
c1ccc(C(c2ccccc2)N2CCN(C(c3ccccc3)c3ccccc3)CC2)cc1 | -3.98% and -0.239%
c1ccc(Sc2ccccc2CN2CCCC2)cc1 | 2.38%
CCCCN1CCCCC1C(=O)Nc1c(C)cc(C)cc1C (centres unmarked) | -2.77%
Cc1cc(N2N=C(c3ccc(Br)cc3)CC2c2ccccc2)nc(-c2ccccc2O)n1 (centres unmarked) | -1.5%
COc1ccc(NS(=O)(=O)C[C@H](CCc2ccccc2)NC(=O)C2(NC(=O)c3ccc(-c4csc(N5CCN(C)CC5)n4)cc3)CCCCC2)cc1 | 15.9%
Cc1nnc(N2CCCC(C(=O)NCCCN3CCN(C)CC3)C2)c2nn(-c3ccccc3)c(C)c12 (centres unmarked) | 3.08%
COc1ccc(CCNC(=O)c2cncc(NS(=O)(=O)c3ccc(Cl)cc3)c2)cc1OC | -3.77%
CCCN1CCN(C(=O)c2oc3ccccc3c2NC(=O)C2CC2)CC1 | -3.65%
CCOc1ccc2nc(NC(=O)c3cc(=O)c4cc(C)ccc4o3)sc2c1 | 0.248%
COc1cccc(S(=O)(=O)N2CCN(c3ccc(Cl)c(Cl)c3)CC2)c1 | 1.88%
c1ccc(Cc2nnc3sc(C4COc5ccccc5O4)nn23)cc1 (centres unmarked) | 1.54%

SMILES | % Inhibition @ 10 uM
CCOC(=O)C1CCCN(Cc2cccc(Cl)c2)C1 (centres unmarked) | -6.82%
CCn1c(C(=O)NCc2ccc(OC)cc2)cc2sccc21 | -3.08%
Cc1cccc(-c2nc(CS(=O)CC(=O)N3CCN(c4ccccn4)CC3)c(C)o2)c1 (centres unmarked) | -8.65%
CC(C)/N=C/c1c(O)[nH]c2ccccc12 | -3.74%
C=CCNC(=O)c1ccccc1Cl | 5.91%
CC(C)CC(C(=O)NCC#N)c1cccc(-c2cccc([N+](=O)[O-])c2)c1 (centres unmarked) | 0.173%
CCOC(=O)c1c(NC(=O)CSc2ncnc3sc4c(c23)CCCC4)sc(C)c1C | -5.28%
COc1ccccc1C1CC(=O)NC(C)=C1C(=O)OCc1ccc2c(c1)OCO2 (centres unmarked) | 0.205%
CCN(CC)S(=O)(=O)c1cc(-c2nn3c(C)nnc3c3ccccc23)ccc1C | 0.776%
Cc1ccc(-c2csc(/C(C#N)=C/c3ccccc3F)n2)cc1 | 5.01%
COc1ccc(OCCSc2nnnn2-c2ccccc2)cc1 | 1.25%
O=C(OCCCN1CCOCC1)c1ccc(O)cc1 | 3.47%
NC(=O)C1CCCN(Cc2ccc(F)cc2F)C1 (centres unmarked) | -0.446%
O=C(NC1CCCCC1)C1CCCN(S(=O)(=O)N2CCCCC2)C1 (centres unmarked) | -4.99%
CCCCNC(=O)NCCOC(=O)Nc1ccc(C)cc1 | -11%
CCOC(=O)C1=C(CN2CCN(c3ncccn3)CC2)NC(=O)NC1c1cccc(OC)c1OC (centres unmarked) | -1.3%
CC1CN(C(=O)CCCOc2ccc(Cl)cc2Cl)CC(C)O1 (centres unmarked) | 2.22%
O=C(O)CC(NC(=O)OCc1ccccc1)c1ccccc1 (centres unmarked) | -7.08%
Cc1nonc1CC(=O)O | -1.07%
CC1(C)C/C(=C(\C#N)C(N)=O)CCO1 | 2.16%
CN(Cc1ccccc1)C(=O)Cn1nnc2sc3c(c2c1=O)CCC(C(C)(C)C)C3 (centres unmarked) | -6.43%

SMILES | % Inhibition @ 10 uM
Cc1ccc(OCC(=O)Nc2ccc(S(=O)(=O)Nc3ccc(F)cc3)cc2)cc1 | 3.35%
Cc1cccc2c1NC(=O)C2(c1c(C)n(C)n(-c2ccccc2)c1=O)c1c(C)n(C)n(-c2ccccc2)c1=O | -0.636%
CC1=C(C(=O)OCc2ccccc2)C(c2ccc(C)cc2)C2=C(O)CC(C)(C)CC2=N1 (centres unmarked) | 7.56%
CC(C)CCOc1ccc(S(=O)(=O)NCCOc2ccccc2)cc1C(N)=O | -4.42%
N#Cc1c(N)oc2nnc(-c3cccnc3)c-2c1-c1c(O)[nH]c2ccc(Br)cc12 | -4.4%
Cc1cccc(OCC(=O)Nc2ccc(C(N)=O)cc2)c1 | 3.8%
COc1ccc(/C(O)=C/C=N/c2ccc(O)cc2)cc1OC | -0.638%
COc1cc(C(=O)ON=C2C=CC(=O)C=C2)cc(OC)c1OC | 0.146%
COc1ccc(-c2nn(C)c3sc(C(=O)NC(C)C)cc23)cc1OC | -2.29%
Nc1ccccc1C(=O)Nc1cc(C(=O)O)cc(C(=O)O)c1 | -3.39%
O=C(CCc1nc(-c2ccc(Cl)cc2)no1)N1CCOCC1 | -3.12%
c1ccc(C2=NCCn3cccc32)cc1 | -4.75% and -2.03%
CCOc1ccc(C2C3=C(O)CC(C)(C)CC3=NC(C)=C2C(=O)Nc2cccc(C)n2)cc1 (centres unmarked) | 1.08%
C=CCOc1ccc(C(=O)N(Cc2ccc(Cl)cc2)Cc2ccco2)cc1 | -5.91%
COc1cc(C(=O)N/C(=C/c2ccc(N(C)C)cc2)C(=O)O)cc(OC)c1OC | -4%
Cc1ccnc(NC(=O)C(C)N2C(=O)c3ccccc3C2=O)c1 (centres unmarked) | -5.28%
CC(=O)/C=C/c1c(C)n(C)c2ccc([N+](=O)[O-])cc12 | -3.13%
O=C(NCc1ccccc1)c1cc(C2CC2)[nH]n1 | -6.42%
COc1cc(C)nc(Nc2nc(C)c3ccc(C)cc3n2)n1 | -0.511%
COc1ccc(NC(=O)CN2C(=O)c3cccc4cccc2c34)cc1Cl | -0.949%
